{"source": "PubChem BioAssay AID485294", "about": "(National Center for Advancing Translational Sciences (NCATS), 2010)", "note": "Hit rate of the full screen: of about 370,000 compounds, about 150 (0.041%) were called active. The shares of active, inactive and inconclusive entries below differ from those in the screen. The call rests on the fitted dose curve; in most records, active means well fitted inhibition curve with a large enough effect; inconclusive means small, poorly fitted or top-dose-only effect; inactive means flat fitted curve, though single readings scatter. No potency is given beside an inconclusive call; the fits are too rough. Potency means the concentration at half of the fitted maximal effect; tags describe the fitted curve by direction and shape."}
{"target": "Beta-lactamase (Escherichia coli (strain K12)) (UniProt P00811)", "sequence (P00811 whole entry, looked up)": "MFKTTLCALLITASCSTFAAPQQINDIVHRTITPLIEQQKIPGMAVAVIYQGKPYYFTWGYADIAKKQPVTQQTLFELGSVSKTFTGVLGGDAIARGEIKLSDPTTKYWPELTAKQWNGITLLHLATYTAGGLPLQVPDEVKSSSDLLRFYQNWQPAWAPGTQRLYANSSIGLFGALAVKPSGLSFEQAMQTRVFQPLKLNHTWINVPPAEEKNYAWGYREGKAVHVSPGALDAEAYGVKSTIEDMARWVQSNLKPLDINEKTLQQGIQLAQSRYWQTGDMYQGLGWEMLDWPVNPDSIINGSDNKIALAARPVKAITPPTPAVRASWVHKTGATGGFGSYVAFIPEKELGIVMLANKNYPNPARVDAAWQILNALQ", "assay": "qHTS Inhibitors of AmpC Beta-Lactamase (assay with detergent); further: nearly all actives have a fitted effect of over 25% in size;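 on activity change, negative = inhibition: 0% = no-compound wells and -100% = no-enzyme wells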", "details": "AmpC hydrolysis of nitrocefin, absorbance 480 nm, 0.01% Triton; activity change, negative = inhibition: at 114 µM (top of the series)", "how_it_was_run": "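AmpC (5.3 nM in the dispensed reagent) in 20 mM phosphate pH 7.0 with 0.01% (detergent screen) or 0.0001% Triton X-100 was preincubated with compounds for 15 min at room temperature. Nitrocefin was then added from an 800 uM solution, and hydrolysis was followed at 480 nm.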"}
{"smiles": "CC(=O)NC(=S)Nc1ccc(NC(=S)NC(=O)/C=C/c2ccco2)cc1", "activity change, negative = inhibition": "inactive: 0.233%"}
{"smiles": "Cc1cccc(OCC(=O)N(Cc2ccc(F)cc2)C2CCS(=O)(=O)C2)c1C", "note": "(stereo unspecified)", "Potency": "inconclusive [inhibitor, partial curve]"}
{"smiles": "O=C(Nc1ccccc1F)c1ccc2c(c1)CCN2S(=O)(=O)c1ccccc1", "Potency": "inconclusive [inhibitor, partial curve, poor fit]"}
{"smiles": "CCN1C(=O)[C@H]2[C@@H](c3ccc(-c4ccc(C(C)=O)cc4)cc3)N[C@@](Cc3ccccc3)(C(=O)OC)[C@H]2C1=O", "Potency": "inconclusive [inhibitor, single point]"}
{"smiles": "CC(/C=N/Nc1nc(C)cc(C)n1)=C\\c1ccc(C(C)C)cc1", "Potency": "inconclusive [inhibitor, full curve, poor fit]"}
{"smiles": "COC(=O)c1sccc1NC(=O)CSc1cccc(Cl)c1Cl", "Potency": "inconclusive [inhibitor, full curve, poor fit]"}
{"smiles": "Cc1nn(C)c(C)c1/C=N/O", "Potency": "inconclusive [inhibitor, full curve, poor fit]"}
{"smiles": "CCCNc1c(NS(=O)(=O)c2cccs2)c(=O)oc2ccccc12", "Potency": "inconclusive [inhibitor, full curve, poor fit]"}
{"smiles": "CC1(C)CC(=O)C2=C(C1)Nc1ccccc1NC2c1cc(Cl)ccc1O", "note": "(stereo unspecified)", "activity change, negative = inhibition": "inactive: 3.38%"}
{"smiles": "COc1cc(/C=N\\NC(=O)c2ccc(-c3ccccc3)cc2)cc(OC)c1OC(C)=O", "activity change, negative = inhibition": "inactive: 4.45%"}
{"smiles": "COc1cccc(NC(=O)CSc2nc3c(sc4ccccc43)c(=O)n2CCCN2CCCC2)c1", "activity change, negative = inhibition": "inactive: -0.415%"}
{"smiles": "Cc1ccc(C(=O)Nc2cnc3sc(C)nn3c2=O)cc1", "Potency": "inconclusive [inhibitor, full curve]"}
{"smiles": "CCOC(=O)C1=C(C)NC2=C(C(=O)CCC2)C1c1ccc(O)c(OCC)c1", "note": "(stereo unspecified)", "Potency": "inconclusive [inhibitor, partial curve, poor fit]"}
{"smiles": "CCOC(=O)N1CCC(N2C(=O)c3ccc(C(=O)O)cc3C2=O)CC1", "Potency": "inconclusive [inhibitor, full curve, poor fit]"}
{"smiles": "Cc1ccc(S(=O)(=O)NCc2ccccc2)cc1C(=O)NC(C)c1ccc(S(N)(=O)=O)cc1", "note": "(stereo unspecified)", "Potency": "inconclusive [inhibitor, full curve, poor fit]"}
{"smiles": "COc1ccc(NC(=O)N2c3ccc(OC)cc3C(C)=CC2(C)C)cc1", "Potency": "inconclusive [inhibitor, partial curve, poor fit]"}
{"smiles": "Cc1ccc(-c2nc(CSCC(=O)NCC3CCCO3)c(C)o2)cc1", "note": "(stereo unspecified)", "activity change, negative = inhibition": "inactive: -6.99%"}
{"smiles": "COc1cc(/C=N/NP(=S)(c2ccccc2)c2ccccc2)ccc1O", "Potency": "inconclusive [inhibitor, full curve, poor fit]"}
{"smiles": "CCCc1cc(=O)[nH]c(SCc2cc(=O)oc3cc(C)c(C(C)C)cc23)n1", "activity change, negative = inhibition": "inactive: -14.2%"}
{"smiles": "CCOC(=O)CNC(=S)N(Cc1ccccc1)Cc1ccccc1F", "Potency": "inconclusive [inhibitor, single point]"}
{"smiles": "Nc1nonc1-n1nnc(C(=O)N/N=C/c2c(Cl)cccc2Cl)c1CN1CCOCC1", "Potency": "inconclusive [inhibitor, single point]"}
{"smiles": "S=c1[nH]nc([C@@H]2C[C@H]2c2ccccc2)n1-c1ccccc1", "activity change, negative = inhibition": "inactive: -0.255%"}
{"smiles": "C=CCNC(=O)c1ccc(Cn2c(=S)[nH]c3cc4c(cc3c2=O)OCO4)cc1", "Potency": "inconclusive [inhibitor, full curve, poor fit]"}
{"smiles": "COC(=O)/C=C/c1ccc(OC(=O)OC)c(OC(=O)OC)c1", "Potency": "inconclusive [inhibitor, full curve, poor fit]"}
{"smiles": "S=C1NC[C@H](c2ccccc2)N1CCCCC1CCCCC1", "activity change, negative = inhibition": "inactive: 15.5%"}
{"smiles": "COC(=O)[C@H](Cc1c[nH]c2ccccc12)NC(=O)CCCc1c[nH]c2ccccc12", "activity change, negative = inhibition": "inactive: 1.15%"}
{"smiles": "O=C(Nc1ccccc1)C1CCCN(S(=O)(=O)c2ccc(-n3cnnn3)cc2)C1", "note": "(stereo unspecified)", "Potency": "inconclusive [inhibitor, single point]"}
{"smiles": "COC(=O)c1scc(C)c1N/N=C(\\C)c1ccc(F)cc1", "activity change, negative = inhibition": "inactive: -12%"}
{"smiles": "Cc1cccc(N2CCN(C(=O)c3cc4c(=O)n(C)c5ccccc5c4n3C)CC2)c1C", "Potency": "inconclusive [inhibitor, partial curve, poor fit]"}
{"smiles": "CN1CCN(C(=S)NC(=O)c2cccc([N+](=O)[O-])c2)CC1", "activity change, negative = inhibition": "inactive: -13.8%"}
{"smiles": "CCOC(=O)C1CCCC(NS(=O)(=O)c2ccc(NC(C)=O)cc2)C1", "note": "(stereo unspecified)", "Potency": "inconclusive [inhibitor, full curve, poor fit]"}
{"smiles": "Cc1cccn2c(=O)c(/C=C(\\C#N)C(=O)NC3CCS(=O)(=O)C3)c(N3CCC(C(N)=O)CC3)nc12", "note": "(stereo unspecified)", "Potency": "inconclusive [inhibitor, partial curve]"}
{"smiles": "CC(=O)N/C(=C\\c1ccc(C)o1)C(=O)NCc1ccccc1", "Potency": "inconclusive [inhibitor, full curve, poor fit]"}
{"smiles": "O=[N+]([O-])c1cccc(CN2CC=C(c3ccc(F)cc3)CC2)c1", "Potency": "inconclusive [inhibitor, full curve]"}
{"smiles": "O=C1NC(c2ccccc2)=C(c2ccccc2)C1=O", "Potency": "inconclusive [inhibitor, partial curve, poor fit]"}
{"smiles": "CCSc1cc(C2C(C(=O)OC)=C(C)NC3=C2C(=O)CCC3)c(C)o1", "note": "(stereo unspecified)", "Potency": "inconclusive [inhibitor, partial curve, poor fit]"}
{"smiles": "COCCn1c(Cc2ccccc2)nnc1SCC(=O)Nc1oc(C)c2c(C)n[nH]c(=O)c12", "Potency": "inconclusive [inhibitor, full curve, poor fit]"}
{"smiles": "COC(=O)C1=C(C)N(c2cccc(OC)c2)C(=O)/C1=C\\c1ccco1", "Potency": "inconclusive [inhibitor, full curve]"}
{"smiles": "Cc1ccc(C)n1-c1nc(=S)[nH][nH]1", "Potency": "inconclusive [inhibitor, single point]"}
{"smiles": "O=C(NC1CCCCC1)C1CC(=O)N(c2ccc(Cl)cc2)C1", "note": "(stereo unspecified)", "Potency": "inconclusive [inhibitor, full curve, poor fit]"}
{"smiles": "COc1ccc(C(=O)N/N=C/C(C)c2ccccc2)cc1OC", "note": "(stereo unspecified)", "activity change, negative = inhibition": "inactive: 2.85%"}
